Read counts are not given, so values of variants with three or more changes are uncertain.
B1: LINE1-mini (parent)
chain: GGCAGAGCUCAACACAGCGUGGCAAAGUGGCUGUGGCUAGACUGCC

Variants of: B1
Assay: self-cleavage, relative activity (ratio to wild type); higher = more cleavage; in vitro, sequencing; the parent is a self-cleaving ribozyme

**Q.** For GGCAGAGCUCAAAACAGCGUGGAAAAAUGGCUGUGGCUAGACUGCC [C13A C23A G27A], which self-cleavage is on record?
**A.** Its self-cleavage is 0.12.

**Q.** Which self-cleavage does the source give for GGCAGAGCUCAAAACAGCGUGGCAAAGUGGCUGAGGGUAGACUGCC [C13A U34A C37G] here?
**A.** Its self-cleavage is 0.04.

**Q.** With GGCAGAGCUCAAAACAGCGUGGCAAAGUGGCUAUGGCAAGACUGCC [C13A G33A U38A] as the variant, how does the self-cleavage read?
**A.** The self-cleavage was 0.02.

**Q.** For GGCAGAGCUCAAAACAGCGUAGCAAAGUGGUUGUGCCUAGACUGCC [C13A G21A C31U G36C], which self-cleavage is on record?
**A.** Its self-cleavage is 0.03.

**Q.** For GGCAGAGCUCAAAACAGCGUGGCAACGUGGACGUGGCUAGACUGCC [C13A A26C C31A U32C], which self-cleavage is on record?
**A.** The self-cleavage was 0.15.

**Q.** For GGCAGAGCUCAAAACAGCAUGGCAAAGUGGCUUUUGCUAGACUGCC [C13A G19A G33U G35U], which self-cleavage is on record?
**A.** Its self-cleavage is 0.05.

**Q.** Which self-cleavage does the source give for GGCAGAGCUCAAAACAGCGUGGCAAAAUGGCGGUGGCUAGAAUCCC [C13A G27A U32G C42A G44C] here?
**A.** The self-cleavage was 0.01.

**Q.** With GGCAGAGCUCAAAACAAAGUGGCAAAGUGGCUGUGGCUAGACUGCA [C13A G17A C18A C46A] as the variant, how does the self-cleavage read?
**A.** Its self-cleavage is 0.05.

**Q.** Which self-cleavage does the source give for GGCAGAGCUCAAAACAGCGUUGCAAAUUGGCUGUGGCUAGACUGCC [C13A G21U G27U] here?
**A.** Its self-cleavage is 0.09.

**Q.** Which self-cleavage does the source give for GGCAGAGCUCAAGACGGCUUGGCAAAGUGGCUGUGGCUAGACUGCC [C13G A16G G19U] here?
**A.** The self-cleavage was 0.01.

**Q.** With GGCAGAGCUCAAAACAGCGUGGCAAAGUUGAUGUGGCGAGACUGCC [C13A G29U C31A U38G] as the variant, how does the self-cleavage read?
**A.** Its self-cleavage is 0.19.

**Q.** For GGCAGAGCUCAAAACAGCGUGACAAAGUGGCUGUGGCUAGACCGCC [C13A G22A U43C], which self-cleavage is on record?
**A.** Its self-cleavage is 0.

**Q.** For GGCAGAGCUCAAAACAGCGCGGCAAAGCGGAUGUGGCUAGGCUGGC [C13A U20C U28C C31A A41G C45G], which self-cleavage is on record?
**A.** Its self-cleavage is 0.02.

**Q.** Which self-cleavage does the source give for GGCAGAGCUCAAAAAAGCGUGCCAAGGUGGCUGUGGCUAGACUGCC [C13A C15A G22C A26G] here?
**A.** Its self-cleavage is 0.01.

**Q.** With GGCAGAGCUCAAAAAAGCGUAGCAAAGUGGCUGUGCCUAGACUGCC [C13A C15A G21A G36C] as the variant, how does the self-cleavage read?
**A.** Its self-cleavage is 0.04.

**Q.** With GGCAGAGCUCAAAAAAGCGUGUCAAAGUGGCUGUGGCUAGACUGCC [C13A C15A G22U] as the variant, how does the self-cleavage read?
**A.** The self-cleavage was 0.56.

**Q.** Which self-cleavage does the source give for GGCAGAGCUCAAAACAGCGGGGCAAAGUGGCUGUGGCUAGAGUGCC [C13A U20G C42G] here?
**A.** The self-cleavage was 0.03.

**Q.** With GGCAGAGCUCAAAACAGCGUCGCAAAGUGGCUGUUGCUAGACUGUC [C13A G21C G35U C45U] as the variant, how does the self-cleavage read?
**A.** The self-cleavage was 2.23.

**Q.** Which self-cleavage does the source give for GGCAGAGCUCAAAACAACGUGGCAAAGUGGUUGUCGCUAGACUGCC [C13A G17A C31U G35C] here?
**A.** Its self-cleavage is 0.03.

**Q.** Which self-cleavage does the source give for GGCAGAGCUCAAAACAGCGUGGAAAAGUGGCUAUGGCUAUACUGCC [C13A C23A G33A G40U] here?
**A.** The self-cleavage was 0.1.

**Q.** For GGCAGAGCUCAAAACAGCGUGUCAAAGUGGCUUUGGCUAGACUGCC [C13A G22U G33U], which self-cleavage is on record?
**A.** Its self-cleavage is 0.08.

**Q.** For GGCAGAGCUCAAAACAACGUGGCAAAGUGACCGUGGCUAGACUGGC [C13A G17A G30A U32C C45G], which self-cleavage is on record?
**A.** The self-cleavage was 0.01.

**Q.** With GGCAGAGCUCAAAAUAGCGUGGCAAAAUGGCUCUGGCUAGACUGCC [C13A C15U G27A G33C] as the variant, how does the self-cleavage read?
**A.** Its self-cleavage is 0.07.

**Q.** With GGCAGAGCUCAAAACAGCGUGUUACAGCGGCUGUGGCUAGACUGCC [C13A G22U C23U A25C U28C] as the variant, how does the self-cleavage read?
**A.** The self-cleavage was 0.04.

**Q.** For GGCAGAGCUCAAGACCGAGUGGCAAAGUAGCUGUAGCUAGACUGCC [C13G A16C C18A G29A G35A], which self-cleavage is on record?
**A.** The self-cleavage was 0.16.

**Q.** With GGCAGAGCUCAAAACAGCGUGGCAAAGUUCCUGUGGCUAGACUGCC [C13A G29U G30C] as the variant, how does the self-cleavage read?
**A.** Its self-cleavage is 0.21.

**Q.** For GGCAGAGCUCAAAACAGCCUGGCAAAGUGGCUGUGGCUUGACUGCC [C13A G19C A39U], which self-cleavage is on record?
**A.** Its self-cleavage is 0.61.

**Q.** With GGCAGAGCUCAAGGCAGCGUGGCAAAGUGGCUGUGGCUAGACUACC [C13G A14G G44A] as the variant, how does the self-cleavage read?
**A.** Its self-cleavage is 0.06.

**Q.** For GGCAGAGCUCAAAACAGAGUGGCAUAGUGGCUGUGGCUAGAAUGCC [C13A C18A A25U C42A], which self-cleavage is on record?
**A.** Its self-cleavage is 0.02.

**Q.** With GGCAGAGCUCAAAAGAGCGUGGCCAACUGGCUGUGGCUAGACUGCC [C13A C15G A24C G27C] as the variant, how does the self-cleavage read?
**A.** Its self-cleavage is 0.04.

**Q.** With GGCAGAGCUCAAGUCAGCGUGGCAAAGUGGCUGUGGCUAGGCUGCC [C13G A14U A41G] as the variant, how does the self-cleavage read?
**A.** Its self-cleavage is 0.04.

**Q.** Which self-cleavage does the source give for GGCAGAGCUCAAAACAGCGUGGCAAUGUGGCUGAGGCUAGACUGCC [C13A A26U U34A] here?
**A.** The self-cleavage was 0.03.

**Q.** With GGCAGAGCUCAAAACAGCGUGGCAAACGGGCUGUGACUAGACUGCC [C13A G27C U28G G36A] as the variant, how does the self-cleavage read?
**A.** The self-cleavage was 0.06.

**Q.** With GGCAGAGCUCAAAACAGCGUUGCAAAGUGGCUGUGGCUAAACUGCC [C13A G21U G40A] as the variant, how does the self-cleavage read?
**A.** Its self-cleavage is 0.03.

**Q.** For GGCAGAGCUCAAAACAGCGUGGUAAAUUGGCUGUGACUUGACUGCC [C13A C23U G27U G36A A39U], which self-cleavage is on record?
**A.** The self-cleavage was 0.03.

**Q.** With GGCAGAGCUCAAAAGAGCGUGGCAAAGUGGCUGUGGCUAGACGACC [C13A C15G U43G G44A] as the variant, how does the self-cleavage read?
**A.** The self-cleavage was 0.02.

**Q.** With GGCAGAGCUCAAAACAGCGUGGCAAACUGGCUGUGGCUAGACUCCC [C13A G27C G44C] as the variant, how does the self-cleavage read?
**A.** Its self-cleavage is 0.09.

**Q.** Which self-cleavage does the source give for GGCAGAGCUCAAAACAGCGUGGCAACGUGGCUGUGGCUAGACUGAC [C13A A26C C45A] here?
**A.** The self-cleavage was 0.18.

**Q.** With GGCAGAGCUCAAAACAGGGUGGCAAAGUGGCUGUGCCUAGACUGCC [C13A C18G G36C] as the variant, how does the self-cleavage read?
**A.** Its self-cleavage is 0.13.

**Q.** For GGCAGAGCUCAAAACAGGGUGGCAAAUUGGCUGUGGCUAGACUGCC [C13A C18G G27U], which self-cleavage is on record?
**A.** The self-cleavage was 0.26.

**Q.** With GGCAGAGCUCAAAACAGCGUGGCAAAGCGGCUGUGGCUAGUCUGCC [C13A U28C A41U] as the variant, how does the self-cleavage read?
**A.** The self-cleavage was 0.2.

**Q.** With GGCAGAGCUCAAAACAGCGUGGCAAAGUGGCUGUGGUUAGACGGGC [C13A C37U U43G C45G] as the variant, how does the self-cleavage read?
**A.** The self-cleavage was 0.1.

**Q.** With GGCAGAGCUCAAAACAGCCUGGCAAAGUGGCUGUGGCCAGACUGCC [C13A G19C U38C] as the variant, how does the self-cleavage read?
**A.** Its self-cleavage is 0.01.

**Q.** With GGCAGAGCUCAAGUCACCGUGGCAAAGUGGCUGUGGCUAGACUGCC [C13G A14U G17C] as the variant, how does the self-cleavage read?
**A.** The self-cleavage was 0.02.

**Q.** With GGCAGAGCUCAAAAUAGGGUGGCUAAGUGGCUGUGGCUAGACUGCC [C13A C15U C18G A24U] as the variant, how does the self-cleavage read?
**A.** Its self-cleavage is 0.04.

**Q.** Which self-cleavage does the source give for GGCAGAGCUCAAAACAGCGCAGCAAAGUGGCUGUGGCUAGACUGCC [C13A U20C G21A] here?
**A.** Its self-cleavage is 0.05.

**Q.** For GGCAGAGCUCAAAACAGCGUUGCAACGUGGCUGUGGCUAGACUGCC [C13A G21U A26C], which self-cleavage is on record?
**A.** Its self-cleavage is 0.2.

**Q.** Which self-cleavage does the source give for GGCAGAGCUCAAAACAGCGUAGCAAAGUGGCUGUGGCUGGACUUCC [C13A G21A A39G G44U] here?
**A.** The self-cleavage was 0.06.

**Q.** For GGCAGAGCUCAAAACACCGUGGCACAGUGGCUGUGGCUAAACUGCC [C13A G17C A25C G40A], which self-cleavage is on record?
**A.** Its self-cleavage is 0.03.

**Q.** For GGCAGAGCUCAAAAAAGCGUGGCAAAGUGGCUGUGGCUAGUCUGCC [C13A C15A A41U], which self-cleavage is on record?
**A.** Its self-cleavage is 0.11.

**Q.** With GGCAGAGCUCAAAACAGCGUGGGAAAGUGUCUGGGGCUGGACUGCC [C13A C23G G30U U34G A39G] as the variant, how does the self-cleavage read?
**A.** The self-cleavage was 0.03.

**Q.** For GGCAGAGCUCAAAAAAGCUUUACAAAGUGGCUGUGGCUAGACUGCC [C13A C15A G19U G21U G22A], which self-cleavage is on record?
**A.** The self-cleavage was 0.06.

**Q.** With GGCAGAGCUCAAAACAGCGUGGCAAAAUGGCUGUGGCUAAACUGCC [C13A G27A G40A] as the variant, how does the self-cleavage read?
**A.** The self-cleavage was 0.06.

**Q.** For GGCAGAGCUCAAAACAGCGUGGCAAAGUGGCUGUGCCUAGACUGAC [C13A G36C C45A], which self-cleavage is on record?
**A.** The self-cleavage was 0.01.

**Q.** For GGCAGAGCUCAAAACAUGGUGGCAAAUUGGCUGUCGGAAGACUGCC [C13A G17U C18G G27U G35C C37G U38A], which self-cleavage is on record?
**A.** Its self-cleavage is 0.2.

**Q.** With GGCAGAGCUCAAGUCAGCGUGCCUAAGUGGUUCUGGCUAGACUGCC [C13G A14U G22C A24U C31U G33C] as the variant, how does the self-cleavage read?
**A.** Its self-cleavage is 0.02.

Reference: the RNAGym collection of RNA variant scans (doi:10.7554/elife.90254)
